According to PubChem BioAssay AID894 (National Center for Advancing Translational Sciences (NCATS), 2007):
The whole screen tested about 150,000 compounds, of which about 6,500 (4.3%) were called active. The shares of active, inactive and inconclusive entries below differ from those in the screen. The call rests on the fitted dose curve; in most records, active means well fitted inhibition curve with a large enough effect (not every such curve was filed as active); inconclusive means small, poorly fitted or top-dose-only effect, or another doubt; inactive means no such curve, though single readings can be large or run the other way. No potency is given beside an inconclusive call; the fits are too rough.

These compounds were tested against 15-hydroxyprostaglandin dehydrogenase [NAD(+)] (Homo sapiens) (UniProt P15428) (assay: qHTS Assay for Inhibitors of HPGD (15-Hydroxyprostaglandin Dehydrogenase)). Conditions: purified HPGD, NADH fluorescence kinetic, PGE2 substrate; activity change, negative = inhibition: hits give low values.
Summary of the method: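 NADH formation kinetics: reaction with 30 uM PGE2 and 1 mM NAD+ (final), 20 nM enzyme, Tris-HCl pH 8 with Tween 20, after 15 min compound preincubation at room temperature. Fluorescence change, last versus first of five reads.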
On the % scale 0 is the no-effect control and ±100 the full control effect; potency means the concentration at half of the fitted maximal effect; tags describe the fitted curve by direction and shape.

Chain of UniProt P15428 (P15428 whole entry, looked up): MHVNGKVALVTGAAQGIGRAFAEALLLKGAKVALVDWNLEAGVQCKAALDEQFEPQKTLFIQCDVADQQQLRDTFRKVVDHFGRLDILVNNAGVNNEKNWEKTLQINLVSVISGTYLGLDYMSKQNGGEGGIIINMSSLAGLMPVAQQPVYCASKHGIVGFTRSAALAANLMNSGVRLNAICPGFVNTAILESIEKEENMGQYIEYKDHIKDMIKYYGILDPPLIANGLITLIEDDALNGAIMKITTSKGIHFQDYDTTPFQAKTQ

SMILES | Potency | activity change, negative = inhibition
Cc1cc(/C=N/NC(=O)Cn2c3ccccc3c(=O)c3ccccc32)c(C)n1-c1ccc(Cl)cc1 | inconclusive [inhibitor, partial curve] | –
O=C(CNC(=O)c1ccc(S(=O)(=O)N2CCCC2)cc1)N/N=C/c1c(Cl)cccc1Cl | – | inactive: -15.7%
COc1cc(OC)cc(-c2nc(-c3ccccc3OC)no2)c1 | – | inactive: -13.2%
CC(C)OCCCNC(=O)C1CCC(CNS(=O)(=O)c2ccccc2)CC1 (stereo not given) | inconclusive [inhibitor, partial curve, poor fit] | –
CCOC(=O)c1[nH]c2ccc(F)cc2c1NC(=O)CN1CCN(C/C=C/c2ccccc2)CC1 | inconclusive [inhibitor, single point] | –
Cc1ccc(NC(=O)c2cccc(N(C)C)c2)cc1NC(=O)c1ccc(O)cc1 | inconclusive [inhibitor, partial curve] | –
Cc1ccc2nc(N3CCN(Cc4nnnn4Cc4ccccc4)CC3)c(C#N)cc2c1 | inconclusive [inhibitor, partial curve] | –
O=S(=O)(O)C(c1ccccc1)[C@@H](O)c1ccccc1 (stereo not given in full) | – | inactive: -9.34%
COc1cc2oc(=O)cc(-c3ccc(-c4ccc(O)cc4)cc3)c2c(OC)c1OC | inconclusive [inhibitor, single point] | –
CCN(CC)C(=O)CSc1nc2ccc(NC(=O)CSc3nnc(N)s3)cc2s1 | active: 14.1 µM | –
CCOC(=O)C1CCCN(C(=O)c2cc3ncc(Br)cn3n2)C1 (stereo not given) | – | inactive: -28.9%
N#Cc1nc(Cc2cccc3ccccc23)oc1NCCN1CCOCC1 | – | inactive: -2.96%
COc1ccc(C(CC(=O)Nc2ccccc2OC)n2cccc2)cc1 (stereo not given) | active: 25.1 µM | –
O=C(NC(=S)Nc1cc(-c2nc3ccccc3[nH]2)ccc1Cl)c1ccc2c(c1)OCO2 | active: 20 µM | –
CC(C)C(=O)Nc1ccc2c(c1)C(=O)N(CCC(=O)O)C2=O | inconclusive [inhibitor, partial curve] | –
COc1ccccc1CN=Cc1[nH]c2ccc(Br)c(Cl)c2c1O | active: 12.6 µM | –
O=C(c1cnn2c(C(F)(F)F)cc(-c3ccccc3)nc12)N1CCOCC1 | inconclusive [inhibitor, single point] | –
CCCCOC(=O)Nc1ccc(N(C)C)cc1 | active: 31.6 µM | –
Cc1ccc2nc(/C(C#N)=C\c3ccc(Oc4ccc([N+](=O)[O-])cn4)cc3)[nH]c2c1 | inconclusive [inhibitor, partial curve] | –
COC(=O)c1ccc(CSc2nnc(NCc3ccccc3)s2)o1 | active: 14.1 µM | –
